# PubChem BioAssay AID624296 (National Center for Advancing Translational Sciences (NCATS), 2012)
# The whole screen tested about 350,000 compounds, of which about 9,900 (2.8%) were called active. The inconclusive results got no clear call from the source; some entries with a clear call stand among them for comparison. The call rests on the fitted dose curve; in most records, active means well fitted activation curve with a large enough effect; inconclusive means small, poorly fitted or top-dose-only effect; inactive means no such curve, though single readings can be large or run the other way. Potencies of inconclusive entries are left out as doubtful fits.
# Experiment: A quantitative high throughput screen for small molecules that induce DNA re-replication in MCF 10a normal breast cells. Further: nearly all actives have a fitted effect of over 50% in size. On activity, positive = re-replication: % of control where 0% means no effect.
# Details: MCF 10A DNA re-replication, Hoechst nuclear intensity, 48 h; activity, positive = re-replication: at 46.1 µM (top of the series)
# Potency means the concentration at half of the fitted maximal effect; tags describe the fitted curve by direction and shape.
SMILES,Potency,"activity, positive = re-replication"
O=C(CN1CCN(Cc2ccccc2)CC1)N1CCCc2c1c(=O)oc1ccc(O)cc21,active: 20.6 µM,–
CCN1CCN(S(=O)(=O)c2cc3c(cc2Cl)NC(=O)CO3)CC1,–,inactive: 3.03%
CN(C)CC#CCC(O)(c1ccccc1)C1CCCCC1 (centres undefined),–,inactive: -2.98%
CCCCOc1c(Br)cc(/C=N/O)cc1OCC,"inconclusive [activator, single point]",–
CCCCCCCNC(=O)C1(CC2CC(c3ccccc3)=NO2)CCN(C(=O)OC(C)(C)C)CC1 (centres undefined),"inconclusive [activator, single point]",–
O=C(CCc1ccccc1)Nc1ccccc1OC(=O)c1ccccc1,–,inactive: 1.55%
Cc1nc(-c2ccc(NC(=O)/C=C\C(=O)O)cc2)cs1,–,inactive: -4.49%
C/C(=N\Nc1ccccc1)c1cccc(N)c1,–,inactive: 7.01%
O=C(c1cc(C2CC2)nn1-c1ccccc1)N1CCN(c2ccc(O)cc2)CC1,–,inactive: 26.7%
CCCc1nn(C)c(C(=O)Nc2ccc(C(C)(C)C)cc2)c1Cl,"inconclusive [activator, single point]",–
COc1ccc(N2CCN(Cc3cc4c(cc3Br)OCCO4)CC2)cc1,–,inactive: 13.2%
Nc1ccc(-c2nc3ccc(N)cc3s2)cc1,"inconclusive [activator, partial curve, poor fit]",–
COCCN(C(=S)Nc1cc(C)cc(C)c1)C(C)c1ccco1 (centres undefined),–,inactive: 3%
N#CC1=C(N)C(C#N)(C#N)C(c2cccnc2)C2CC(c3ccccc3)CC=C12 (centres undefined),"inconclusive [activator, single point]",–
Cc1c(Cl)cccc1Nc1ccccc1C(=O)O,"inconclusive [activator, partial curve]",–
COc1cc(C(=O)Nc2nc3ccc4nc(C)sc4c3s2)cc(OC)c1OC,–,inactive: -1.03%
CC(=O)NC(=S)Nc1cc(C(=O)O)ccc1Cl,–,inactive: 17%
Oc1ccc2ccccc2c1/C=N/Nc1ccccc1,–,inactive: 9.26%
CCOC(=O)C1(C)Oc2ccc(S(=O)(=O)CC)cc2NC1=O (centres undefined),–,inactive: 9.03%
Cc1ccc(C)c(OCCC(=O)OCC(=O)Nc2cc(S(=O)(=O)N3CCCCC3)ccc2C)c1,"inconclusive [activator, partial curve, poor fit]",–
O=C1OCCN1C(=O)[C@H]1[C@H](c2ccc(F)cc2)C(c2cccc(Cl)c2)=NN1c1ccc(Br)cc1,"inconclusive [activator, full curve, poor fit]",–
COc1ccc([C@H]2CC(=O)C=C(c3ccc(CO)cc3)C2)cc1,–,inactive: 1%
COc1ccc(CN2CCCCCC2)cc1,–,inactive: -0.657%
CN(c1ccccc1)S(=O)(=O)c1cccc(NC(=O)Cc2ccc(Cl)cc2)c1,"inconclusive [activator, single point]",–
Cc1ccc(CNC(=O)CCNC(=O)c2ccc([N+](=O)[O-])cc2)cc1,–,inactive: -0.736%

SMILES,Potency,"activity, positive = re-replication"
COc1cccc(C2=NN(C(=O)c3cccs3)C(O)(C(F)(F)F)C2)c1 (centres undefined),"inconclusive [activator, single point]",–
CCn1ccnc1CNC(=O)c1ccc(OC2CCN(C(=O)COC)CC2)cc1,–,inactive: -1.58%
O=C(Cc1cccc(NC(=O)C2CCCN(C(=O)C3CC3)C2)c1)Nc1cccc(C(=O)N2CCCCC2)c1 (centres undefined),"inconclusive [activator, full curve]",–
CCCc1cc(-n2ccnc2)n2c(nc3ccccc32)c1C#N,"inconclusive [activator, single point]",–
C=C(C)CSc1nc2sc3c(c2c(=O)n1C1CCCCC1)CCN(C)C3,"inconclusive [activator, single point]",–
COc1ccc(CC(=O)Nc2cc(S(=O)(=O)N3CCCCC3)ccc2N2CCN(C)CC2)cc1,"inconclusive [activator, full curve]",–
Cc1ccc(-n2cc(CNC(C)c3cnn(C)c3)c(-c3ccc(F)cc3)n2)cc1 (centres undefined),–,inactive: 6.98%
COc1ccccc1N1CCN(CCOc2c(OC)cccc2OC)CC1,–,inactive: 4.95%
CNC(=S)N(Cc1ccc2c(c1)OCO2)C1CC(=O)N(c2ccccc2)C1=O (centres undefined),"inconclusive [activator, partial curve, poor fit]",–
COc1cc(OC)cc(C(=O)NNC(=O)CCCOc2ccccc2)c1,"inconclusive [activator, single point]",–
CSc1nnc(CSCc2ccc(Cl)cc2Cl)n1-c1ccccc1,active: 11.2 µM,–
COc1ccc(CCN2C(=S)N(C)C(=O)C2CC(=O)Nc2ccc(F)cc2)cc1 (centres undefined),"inconclusive [activator, partial curve, poor fit]",–
Cc1ccccc1Nc1scc(-c2ccc(Cl)cc2)[n+]1-c1ccccc1C,"inconclusive [activator, partial curve]",–
CCOc1cc(C#N)c(NC(=O)c2ccco2)cc1OCC,"inconclusive [activator, partial curve, poor fit]",–
Cc1cccc(C(=O)NCCNc2nc3cc(C)c(C)cc3cc2C)c1,"inconclusive [activator, single point]",–
O=C(Nc1ccc2ncccc2c1)c1cccc(Br)c1,–,inactive: -1.44%
O=C1C[C@@H](c2ccc(O[C@@H]3O[C@H](CO)[C@@H](O)[C@H](O)[C@H]3O)cc2)Oc2cc(O)ccc21,"inconclusive [activator, single point]",–
CCCCOc1nc2ccccc2nc1C(C#N)C(=O)NC1CCCCC1 (centres undefined),"inconclusive [activator, partial curve, poor fit]",–
CCC/C=N/Nc1nc2ccccc2s1,"inconclusive [activator, partial curve, poor fit]",–
Cc1cccc(Nc2nc(N3CCCCC3)nc(N3CCCCC3)n2)c1,–,inactive: 29.9%
O=C(O)CCCC(=O)Nc1ccc(C(=O)N2CCCCC2)c(Cl)c1,–,inactive: 1.12%
CCN(CC)C(=O)C1CCN(Cc2ccc(OCc3ccccc3)cc2)CC1,"inconclusive [activator, single point]",–
COC(=O)c1ccccc1NC(=O)CN1CCC(NC(=O)c2ccc(C)cc2)CC1,–,inactive: 11.6%
COCCCNC(=O)CSc1nc2ccccc2c(=O)n1CCCN1CCCCC1,–,inactive: -7.27%
